These results are taken from PMC7177742, “Zinc Differentially Modulates the Assembly of Soluble and Polymerized Vimentin” (International Journal of Molecular Sciences, 2020).

B1: Alexa 488-labeled vimentin C328S (natural protein)
chain: not shown
modifications: Alexa Fluor 488 on amino groups, 0.2 to 0.9 moles of fluorophore per mole of protein
notes: vimentin, human, C328S, as m2, covalently labeled in the amino groups; Used as a tracer (50 nM) with 1 uM unlabeled vimentin C328S; source: E. coli, purified; obtained from Biomedal S.L. (Spain); labeled with Alexa Fluor 488 carboxylic acid succinimidyl ester, free dye removed by gel filtration
B2: Human vimentin C328S (natural protein)
chain: not shown
notes: vimentin, human, with the single cysteine C328 changed to serine; also called C328S mutant; cysteine to serine mutant; source: E. coli, purified by established protocols; obtained from Biomedal S.L. (Spain)

The series “Human vimentin C328S” concerns the target B2. Put plainly: fluorescence polarisation; fluorescence anisotropy: 1 uM unlabeled vimentin with 50 nM Alexa 488-labeled vimentin as tracer, increasing ZnCl2, 26 C, 96 well black microplate. The conditions noted are these: both partners purified.
Series [1] concerns the molecule itself. Put plainly: electron microscopy (negative stain); soluble vimentin 0.2 mg/mL in 5 mM PIPES-Na pH 7.0, 0.1 mM DTT, with 10 or 100 uM ZnCl2 1 h at r.t., fixed with glutaraldehyde; lateral association of oligomers into fibrils.

As for B1, in the series with Human vimentin C328S, the binding result was “binds”.

In the case of B2, the binding result in series [1] is recorded as “binds”.
